# Laboratory results published in PMC8957250 (ADMET & DMPK, 2019).
# Columns and labels:
# [1] = Tissue distribution study in rats after a single oral dose of OP; format: in vivo, rat; settings: for AUC(0-t): lung, read-out: AUC0-4h of OC in the lungs; for AUC(0-t) / Cmax: rat; for Cmax: plasma, read-out: Cmax of OC in the plasma
# [2] = Tissue/plasma partition coefficients by the area method (AUCtissue/AUCplasma); format: in vivo; settings: rat, po, rats 10 mg/kg OP p.o.
# [3] = Human OP/OC PBPK model (parameter optimization and simulation); settings: for clearance: plasma
# [4] = rat
# [5] = Rat, Experimental, cited from earlier work
# [6] = cited from earlier work
# [7] = set-up: method as in PMID 10866439; settings: human; not used in model, for reference; cited from earlier work
# [8] = test system: neuraminidases; set-up: method as in PMID 10628898; settings: enzymatic assay; read-out: IC50 of OC for neuraminidases; cited from earlier work
# [9] = test system: influenza virus; set-up: method as in PMID 10628898; settings: viral replication inhibition assay; cited from earlier work
# [10] = test system: H1N1 virus neuraminidase; settings: H1N1 influenza virus neuraminidase; cited from earlier work
# [11] = test system: P-glycoprotein; set-up: method as in PMID 17940134; settings: cited from earlier work
# [12] = Blood to plasma ratio; settings: for time to equilibrium between plasma and blood: rat blood, preliminary studies; for blood plasma ratio at 30 min, 100 μg/ml: rat, whole blood
# [13] = set-up: method as in PMID 29633861; settings: rat; cited from earlier work
# [14] = set-up: method as in PMID 9517946; settings: rats, ferrets and mice; cited from earlier work
# [15] = cited from earlier work; remark: listed apart in the source
# [16] = test system: carboxylesterases in rat plasma; settings: cited from earlier work
# [17] = test system: carboxylesterases in human plasma; settings: cited from earlier work
# [18] = in vitro; settings: human
# [19] = footnote of Table 2; cited from earlier work
# [20] = GI tract, adjusted, same for humans
# [21] = Kidney, adjusted, same for humans
# [22] = Liver, adjusted, same for humans
# [23] = Lumped brain (brain + adipose), adjusted to data, same values assumed for humans
# [24] = Lumped lung (lung + heart), adjusted, same for humans
# [25] = Muscle, adjusted, same for humans
# [26] = Spleen, adjusted, same for humans
# [27] = The rest of body, adjusted, same for humans
# [28] = Human, Optimized, i.v. route (bracketed)
# [29] = human, humans, 70 kg BW, read-out: clearance normalized by body weight (converted)
# [30] = Rat, Optimized, i.v. route (bracketed)
# [31] = Human, Optimized (value used in model)
smiles,measurement,setting,value
"CCC(CC)O[C@@H]1C=C(C(=O)O)C[C@H](N)[C@H]1NC(C)=O [OC, oseltamivir carboxylate]",AUC(0-t),[1]; 10 mg/kg OP oral,5200 ng·h/mL
same,AUC(0-t),[1]; 50 mg/kg OP oral,26100 ng·h/mL
same,Cmax,[1]; 10 mg/kg OP single oral dose,800 ng/mL
same,Cmax,[1]; 50 mg/kg OP single oral dose,5630 ng/mL
same,Kp,[2]; [20],1
same,Kp,[2]; [21],8
same,Kp,[2]; [22],5
same,Kp,[2]; [23],0.25
same,Kp,[2]; [24],0.5
same,Kp,[2]; [25],0.5
same,Kp,[2]; [26],0.5
same,Kp,[2]; [27],1
same,CLc,"[3]; Human (70 kg), Optimized",18 L/h
same,BLPLR,"[3]; Human, Optimized",1
same,BLPLR,[3]; [28],0.6
same,CLc,[3]; [28],30 L/h
same,clearance,[3]; [29],4.33 mL/min/kg
same,clearance,[4],25 mL/min/kg
same,CLc,"Rat (0.25 kg), Optimized",0.38 L/h
same,BLPLR,"Rat, Optimized",1
same,BLPLR,[30],0.7
same,CLc,[30],0.5 L/h
same,CLc (clearance of OC),[5]; single 10 mg/kg i.v. dose,0.38 L/h
same,CLc (clearance of OC in urine),"[6]; Human, Experimental",18 L/h
same,Unbound fraction in plasma,[7],97%
same,IC50,[8],0.3 to 2 nM
same,IC50,[9],0.6 to 155 nM
same,IC50 of OC,[9],0.17 to 32.8 ng/mL
same,IC50,[10],0.7 to 2.2 nM
same,P-glycoprotein substrate,[11],P-glycoprotein substrates
same,time to equilibrium between plasma and blood,[12],≤ 20 min
"CCOC(=O)C1=C[C@@H](OC(CC)CC)[C@H](NC(C)=O)[C@@H](N)C1 [OP, oseltamivir phosphate]",Ka (absorption rate constant),"[1]; Rat, Experimental, plasma OC curve after 10 mg/kg OP p.o. fitted to one-compartment model",0.76 h⁻¹
same,Kp,[2]; [20],10
same,Kp,[2]; [21],5
same,Kp,[2]; [22],3
same,Kp,[2]; [23],0.5
same,Kp,[2]; [24],2.5
same,Kp,[2]; [25],1.4
same,Kp,[2]; [26],1.5
same,Kp,[2]; [27],3
same,BLPLR,"[3]; Human, Optimized",1
same,Tlag,"[3]; Human, Optimized",0.44 h
same,Km,[3]; [31],76.0 ^**** mg/L
same,Vmax,[3]; [31],2.6x10^5 mg/h and 2.6 x 10^5 ^**** mg/h
same,F,"[3]; Human, Optimized in PBPK model",0.75
same,Ka,"[3]; Human, Optimized, multiple oral administration (bracketed)",0.14 to 0.28 h⁻¹
same,Ka,"[3]; Human, Optimized, single oral dose",0.35 h⁻¹
same,clearance,[3]; [29],23.3 mL/min/kg
same,bioavailability,"[3]; human, po, humans, final PBPK parameter value, read-out: oral bioavailability factor (F)",~80%
same,Vmax normalized by body weight,"[3]; humans, 70 kg BW",3714 mg/kg/h
same,clearance,"[3]; oral, 150 mg, Human, Optimized, read-out: CLp (converted)",1670 mL/min
same,bioavailability,[4]; po,~80%
same,BLPLR,"Rat, Optimized",1
same,Ka,"Rat, Optimized",12 to 15 h⁻¹
same,Tlag,"Rat, Optimized",0.32 to 0.44 h
same,Vmax normalized by body weight,rats,245 mg/kg/h
same,F (oral bioavailability),[5]; AUCp.o.(OP)/AUCi.v.(OC) ratio,0.35
same,CLp,"[6]; Human, Experimental",20 L/h
same,F,"[6]; Human, Experimental",0.75
same,CL/F,[6]; human,0.438 L/min
same,plasma protein binding,[13],53.7%
same,Unbound fraction in plasma,[7],57%
same,oral bioavailability,[14],30-73%
same,brain-to-plasma exposure ratios,[15],approximately 0.2
same,P-glycoprotein substrate,[11],P-glycoprotein substrates
same,hydrolysis by plasma carboxylesterases in vitro,[16],hydrolyzed primarily to OC
same,hydrolysis by plasma carboxylesterases in vitro,[17],not hydrolysed
same,Km,[18],76 µg/mL
same,Km,[19],187 µM
same,"blood plasma ratio at 30 min, 100 μg/ml",[12]; Sprague-Dawley,~1
same,time to equilibrium between plasma and blood,[12],≤ 20 min
same,"blood plasma ratio at 30 min, 100 μg/ml",[12],1

# “And” between values parts separate entries of the source, which are not always exact repeats. Identical values can stand only once. Like-named read-outs stand apart in the source and are kept apart here. Marks after values point to notes of the source that are not given here.
